In PubChem BioAssay AID1745845 (National Center for Advancing Translational Sciences (NCATS), 2022):
About 2,600 (0.72%) of roughly 360,000 compounds were called active. This list was built around the results that the source calls inconclusive (neither active nor inactive); the mix of calls is not that of the screen. Calls come from the whole dose curve; as a rule, active = well fitted inhibition curve with a large enough effect; inconclusive = small, poorly fitted or top-dose-only effect; inactive = no such curve, though single readings can be large or run the other way. Potencies beside an inconclusive call are fits to weak or partial responses and may not hold up.

Experiment: Primary qHTS for Inhibitors of ATXN expression; note: nearly all actives have a fitted effect of over 55% in size
Settings: HEK-293 ATXN2-luciferase reporter, luminescence, 24 h; series mostly up to 57 µM
Outline: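 ATXN2-luciferase reporter cells (luciferase flanked by upstream and downstream ATXN2 gene portions) were treated 24 h at 37 °C with compounds at up to 57 uM. SteadyGlo luminescence gave expression; GF-AFC fluorescence gave viability.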
Potency is the fitted concentration of half-maximal effect; tags give direction and shape of the fitted curve.

| SMILES | Potency |
| --- | --- |
| CC(C)[C@H](NC(=O)c1ccccc1Cl)C(=O)Nc1nc(-c2ccccn2)cs1 | inconclusive: 21.2 µM [inhibitor, partial curve, poor fit] |
| CCOc1ccc(NC(=O)Cc2coc3ccc(C)cc23)cc1 | inactive |
| COc1ccc(CCN2C(=O)N(c3ccc(F)cc3)C(=O)C2CC(=O)Nc2ccccc2)cc1 (stereo not drawn) | inactive |
| Cc1cc(C)cc(OCC(=O)OC/C(O)=C(\C#N)c2nc3ccccc3[nH]2)c1 | inconclusive: 39.8 µM [inhibitor, single point] |
| N#C/C(=C\c1ccc(Cl)cc1)C(=O)NCC1CCCO1 (stereo not drawn) | inactive |
| Cc1ccc(O)c(CNCCNCc2cc(C)ccc2O)c1 | inconclusive: 15.8 µM [inhibitor, partial curve, poor fit] |
| Cc1cc(OCC(=O)NNC(=O)c2cnccn2)cc(C)c1Cl | inconclusive: 20 µM [inhibitor, partial curve, poor fit] |
| O=C(CCSCCC(=O)Nc1ccccc1F)Nc1ccccc1F | inactive |
| Cn1nc(-c2ccc(Cl)cc2)c2cc(C(=O)NCCCN3CCCC3)sc21 | active: 20 µM |
| CCC(=C(c1ccc(O)cc1)c1ccc(OCCNC)cc1)c1ccccc1 | inconclusive: 30.6 µM [inhibitor, single point] |
| CCOc1cccc(-c2c(C(=O)N/N=C/c3cccs3)nnn2-c2nonc2N)c1 | inactive |
| C[C@]1(O)CC(=O)C=C[C@H]1Nc1ccccc1 | inconclusive: 31.6 µM [inhibitor, single point] |
| O=C(C=Cc1ccccc1)CC(c1ccccc1)N1CCOCC1 (stereo not drawn) | inconclusive: 20 µM [inhibitor, single point] |
| COc1nc2c(C)cccc2cc1-c1noc(-c2ccco2)n1 | inactive |
| Cc1c(C(=O)O)sc2nc(/C=C/c3cccc(O)c3)[nH]c(=O)c12 | inactive |
| O=C(NCC12CC3CC(CC(C3)C1)C2)c1cc2n(n1)C(C(F)(F)F)CC(c1ccco1)N2 (stereo not drawn) | inactive |
| O=C(NC1=CC(=O)c2ccccc2C1=O)c1ccccc1 | active: 7.94 µM |
| C=C[C@@H]1c2cc(C)ccc2N(S(=O)(=O)c2ccc(C)cc2)[C@H](c2ccccc2)C1(C#N)C#N | inactive |
| OCCCNc1c2ccccc2nc2ccccc12 | inconclusive: 3.55 µM [inhibitor, full curve] |
| CCNC(=O)CC1C(=O)N(c2ccccc2)C(=O)N1Cc1ccc(F)cc1 (stereo not drawn) | inactive |
| CSc1nc(=O)n(-c2ccccc2)c(C)c1C(C)=O | inactive |
| O=C(NC(c1ccccc1)c1cnccn1)C1CCN(CCOc2ccc(Cl)cc2Cl)CC1 (stereo not drawn) | inconclusive: 25.1 µM [inhibitor, single point] |
| Cc1cc(=O)n2nc(N3CCC(C(=O)Nc4ccc(C(C)C)cc4)CC3)sc2n1 | inconclusive: 2.82 µM [inhibitor, partial curve, poor fit] |

| SMILES | Potency |
| --- | --- |
| c1cc(SC2CCCCC2)cc(-c2nc3cnccn3c2NC2CCCCC2)c1 | inconclusive: 31.6 µM [inhibitor, single point] |
| Cc1ccc2c(=O)c3cccc(CC(=O)O)c3oc2c1C | active: 24.3 µM |
| CCN(CC)CC(O)Cn1c(C)c(-c2ccccc2)c2cc([N+](=O)[O-])ccc21 (stereo not drawn) | inconclusive: 10 µM [inhibitor, partial curve, poor fit] |
| COc1ccc(CC(N)c2csc(NC(=O)c3cc(C(C)(C)C)oc3C)n2)cc1 (stereo not drawn) | inconclusive: 39.8 µM [inhibitor, single point] |
| CCC(C)n1cnc2c(c1=O)c1nc3ccccc3nc1n2-c1ccc2c(c1)OCCO2 (stereo not drawn) | inconclusive: 3.55 µM [inhibitor, full curve, poor fit] |
| O=C(NC(=S)N1CCCc2ccccc21)c1ccccc1 | inactive |
| O=S(=O)(/C(=C/c1ccc(C(F)(F)F)cc1)c1nc2ccccc2[nH]1)c1ccccc1 | inconclusive: 26.7 µM [inhibitor, partial curve, poor fit] |
| CCOC(=O)C(=Cc1ccc(OCc2ccc([N+](=O)[O-])cc2)c(OC)c1)C(=O)OCC | inconclusive: 39.8 µM [inhibitor, single point] |
| Cc1ccc(C(=O)Nc2cccc(C(F)(F)F)c2)cc1NC(=O)c1c[nH]c2cc(C(F)(F)F)ccc2c1=O | inactive |
| COc1ccc(Cc2[nH]n3c(=O)c(Cl)c(C)nc3c2-c2ccccc2)cc1 | inconclusive: 39.8 µM [inhibitor, single point] |
| CCOc1ccc(CN(C)Cc2cc(=O)oc3c(C)c(C)ccc23)cc1OC | inconclusive: 17.8 µM [inhibitor, single point] |
| COc1ccc(C(=O)Nc2ccc(-c3cc4ccccc4oc3=O)c(C)c2)cc1Br | inactive |
| Cc1ccc(C)c(N2CCN(C(=O)CCCn3ncn4c(cc5occc54)c3=O)CC2)c1 | inconclusive: 25.1 µM [inhibitor, single point] |
| Fc1ccc(-c2nnc3ccc(N4CCc5ccccc5C4)nn23)cc1 | active: 31.6 µM |
| O=C(Nc1cc(F)ccc1F)N1CCN(c2ccnc3cc(Cl)ccc23)CC1 | inconclusive: 11.2 µM [inhibitor, partial curve, poor fit] |
| O=c1cc(N2CCN(c3ccc(F)cc3)CC2)[nH]c(=O)n1C1CCCCC1 | inconclusive: 25.1 µM [inhibitor, partial curve, poor fit] |
| CCOc1ccccc1NC(=S)N1CCC(NC(=O)C(C)(C)C)CC1 | inactive |
| C=CCNc1nc(-c2cc3ccccc3o2)cs1 | inactive |
| CCOc1ccc(/C(O)=C2/C(=O)C(=O)N(c3ncccn3)C2c2ccc(C)cc2)cc1 (stereo not drawn) | inactive |
| O=C(N/N=C/c1cc(Cl)ccc1O)c1ccccc1Br | active: 3.16 µM |
| CCCCCn1c(NCc2ccccc2OC)nc2ccccc21 | inconclusive: 22.4 µM [inhibitor, single point] |
| CC[C@@H](C(=O)[C@@H](C)[C@@H](O)[C@H](C)CCc1ccc(C)c(O)c1C(=O)O)[C@H]1O[C@](CC)([C@H]2CC[C@](O)(CC)[C@H](C)O2)C[C@@H]1C | active: 20 µM |
| COc1ccc(C(=O)COC(=O)c2cc(-c3ccccc3)nc3c(C)cccc23)cc1 | inactive |

| SMILES | Potency |
| --- | --- |
| CC(C)(C)OC(=O)NCCCC[C@@H](C(=O)NCCCCCCCCCCC(=O)N1CCN(C(=O)OC(C)(C)C)CC1)n1cc(CCO)nn1 | inconclusive: 28.2 µM [inhibitor, single point] |
| CCCCCC[N+](C)(C)CC/C=C1/c2ccccc2Sc2ccc(Cl)cc21 | inconclusive: 25.1 µM [inhibitor, partial curve, poor fit] |
| Cc1cc(C)c(C(=O)/C=C/c2ccc(C(C)C)cc2)c(=O)[nH]1 | inconclusive: 39.8 µM [inhibitor, single point] |
| Cc1cccc(-c2ocnc2C(=O)Nc2ccccc2C(=O)N2CCCC2)c1 | inactive |
| Cc1ccc(C(C(=O)NC2CCCC2)N(Cc2ccc3c(c2)OCO3)C(=O)Cc2cccs2)cc1 (stereo not drawn) | inactive |
| CCOC1=C2CN(S(=O)(=O)c3ccc(C)cc3)[C@H](c3cccc(Cl)c3)C[C@@H]2N(S(=O)(=O)c2ccccc2[N+](=O)[O-])[C@H](c2ccccc2)C1 | inactive |
| COc1ccc(Cl)cc1NC(=O)CN(C)CC(=O)Nc1ccc(Br)cc1 | inactive |
| COCCCNc1nc(NCc2cccc(Cl)c2)c2cnn(C)c2n1 | inconclusive: 28.2 µM [inhibitor, partial curve, poor fit] |
| Cc1cc(C(=O)CN2C(=O)C(=O)N(Cc3ccccc3)C2=O)c(C)n1Cc1ccc(F)cc1 | inconclusive: 17.8 µM [inhibitor, partial curve, poor fit] |
| COc1ccc(NC(=O)Cc2coc3cc(C)ccc23)cn1 | inactive |
| CN(Cc1cn(Cc2ccc(C(F)(F)F)cc2)nn1)C1CN(Cc2cn(Cc3ccc(C(F)(F)F)cc3)nn2)S(=O)(=O)C1 (stereo not drawn) | inconclusive: 12.6 µM [inhibitor, partial curve] |
| CC[C@]12c3[nH]c4ccc(OC)cc4c3CCN1C(=O)C(CC(=O)NCC13CC4CC(CC(C4)C1)C3)C[C@@H]2C(=O)N1CCN(C(=O)C2CC2)CC1 (stereo partly drawn) | inconclusive: 39.8 µM [inhibitor, partial curve, poor fit] |
| CCCSc1nsc(NC(=O)C(c2ccccc2)c2ccccc2)n1 | inconclusive: 39.8 µM [inhibitor, partial curve, poor fit] |
| Cc1nn(Cc2c(F)cccc2Cl)c(=O)c2ccccc12 | inactive |
| Oc1c(CN2CCN(c3ccc(F)cc3)CC2)cc(Cl)c2cccnc12 | inconclusive: 3.16 µM [inhibitor, partial curve, poor fit] |
| CN(CCCn1c(=S)[nH]c2ncccc2c1=O)Cc1ccccc1 | inconclusive: 22.4 µM [inhibitor, partial curve, poor fit] |
| COc1cccc(C2=Nn3c(nnc3-c3ccccc3O)SC2)c1 | inactive |
| O=c1[nH]c(NCCCO)nc2c1C1(CCCC1)Cc1ccccc1-2 | inactive |
| COc1cc(/C=C2/CCC/C(=C\c3cc(O)c(OC)c(Cl)c3)C2=O)cc(Cl)c1O | inconclusive: 28.2 µM [inhibitor, single point] |
| OC(c1ccc(-c2ccccc2)cc1)c1ncc(-c2ccc(C(F)(F)F)cc2)[nH]1 (stereo not drawn) | inconclusive: 28.2 µM [inhibitor, single point] |
| Cc1noc(C)c1S(=O)(=O)Nc1ccc2c(c1)C(=O)N([C@@H](C)CO)C[C@@H](C)[C@@H](CN(C)CC1CCCCC1)OCCCC[C@@H](C)O2 | inconclusive: 35.5 µM [inhibitor, single point] |
| CC(C)(C)C(=O)Oc1ccc2c(c1)nc(NC(=O)c1cccc([N+](=O)[O-])c1)n2CCCO | inconclusive: 21.7 µM [inhibitor, partial curve] |
